# Results from the supplement of paper PMC8728848.
# This is one part of the list.
# B1: Epa7 (Candida glabrata), Q6DTM6_CANGB (protein)
# chain: MGSSHHHHHHSSGLVPRGSHMKDDYSSFLSNNNLGWTDPTEFPLGCSPNVTTPKNGLSMELYSYDLRKNGSYPCWDAAYLDPNYPRTGYKSHRLLAKVDGVTGNINFYYHATKGCTPEIDHLPASYNYPKPLTMTNFTMLLYGYFKPKVTGYHTFTISADDLLFVNFGAGNAFDCCKRESSADDFGNYQAYAVWGSQTAKDDLTVHLDAGLYYPIRIFFNNREYDAELSLTLKTESDSNPVIDFSDYFYSFDDTKDGCPGLVSYDTS
# Experiments:
# Test in all cases: glycan array binding signal (z-score within array); higher = stronger binding
# Conditions in all cases: glycan notation: IUPAC condensed, linker removed
# [1] = molecular target: Neu5Ac(a2-3)Gal(b1-4)GlcNAc(b1-2)Man(a1-3)[Neu5Ac(a2-6)Gal(b1-4)GlcNAc(b1-2)Man(a1-6)]Man(b1-4)GlcNAc(b1-4)GlcNAc
# In short: (§1)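 Glycan array data were curated from 3228 arrays in the Consortium for Functional Glycomics database and kept only where the protein sequence was available. Glycan names were converted to IUPAC-condensed notation, and columns mapping to the same glycan were averaged. The binding signal is a within-array Z-score, averaged across arrays of the same protein sequence at different concentrations or buffers and across linkers. Negative Z-scores can be read as non-binding.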
# [2] = molecular target: Neu5Ac(a2-3)Gal(b1-4)GlcNAc(b1-2)[Neu5Ac(a2-3)Gal(b1-4)GlcNAc(b1-4)]Man(a1-3)[GlcNAc(b1-4)][Neu5Ac(a2-3)Gal(b1-4)GlcNAc(b1-2)[Neu5Ac(a2-3)Gal(b1-4)GlcNAc(b1-6)]Man(a1-6)]Man(b1-4)GlcNAc(b1-4)GlcNAc
# In short: as §1
# [3] = molecular target: Neu5Ac(a2-3)Gal(b1-4)GlcNAc(b1-2)[Neu5Ac(a2-3)Gal(b1-4)GlcNAc(b1-4)]Man(a1-3)[GlcNAc(b1-4)][Neu5Ac(a2-3)Gal(b1-4)GlcNAc(b1-4)Man(a1-6)]Man(b1-4)GlcNAc(b1-4)GlcNAc
# In short: as §1
# [4] = molecular target: Neu5Ac(a2-3)Gal(b1-4)GlcNAc(b1-2)[Neu5Ac(a2-3)Gal(b1-4)GlcNAc(b1-6)]Man(a1-6)[Neu5Ac(a2-3)Gal(b1-4)GlcNAc(b1-2)Man(a1-3)]Man(b1-4)GlcNAc(b1-4)GlcNAc
# In short: as §1
# [5] = molecular target: Neu5Ac(a2-3)Gal(b1-4)GlcNAc(b1-2)[Neu5Ac(a2-3)Gal(b1-4)GlcNAc(b1-6)]Man(a1-6)[Neu5Ac(a2-3)Gal(b1-4)GlcNAc(b1-2)Man(a1-3)][GlcNAc(b1-4)]Man(b1-4)GlcNAc(b1-4)GlcNAc
# In short: as §1
# [6] = molecular target: Neu5Ac(a2-3)Gal(b1-4)GlcNAc(b1-3)Gal
# In short: as §1
# [7] = molecular target: Neu5Ac(a2-3)Gal(b1-4)GlcNAc(b1-3)Gal(b1-3)GlcNAc
# In short: as §1
# [8] = molecular target: Neu5Ac(a2-3)Gal(b1-4)GlcNAc(b1-3)Gal(b1-4)GlcNAc
# In short: as §1
# [9] = molecular target: Neu5Ac(a2-3)Gal(b1-4)GlcNAc(b1-3)Gal(b1-4)GlcNAc(b1-2)Man(a1-3)[Neu5Ac(a2-3)Gal(b1-4)GlcNAc(b1-3)Gal(b1-4)GlcNAc(b1-2)Man(a1-6)]Man(b1-4)GlcNAc(b1-4)GlcNAc
# In short: as §1
# [10] = molecular target: Neu5Ac(a2-3)Gal(b1-4)GlcNAc(b1-3)Gal(b1-4)GlcNAc(b1-3)Gal(b1-4)GlcNAc
# In short: as §1
# [11] = molecular target: Neu5Ac(a2-3)Gal(b1-4)GlcNAc(b1-3)Gal(b1-4)GlcNAc(b1-3)Gal(b1-4)GlcNAc(b1-2)Man(a1-3)[Neu5Ac(a2-3)Gal(b1-4)GlcNAc(b1-3)Gal(b1-4)GlcNAc(b1-3)Gal(b1-4)GlcNAc(b1-2)Man(a1-6)]GalNAc
# In short: as §1
# [12] = molecular target: Neu5Ac(a2-3)Gal(b1-4)GlcNAc(b1-3)Gal(b1-4)GlcNAc(b1-3)GalNAc
# In short: as §1
# [13] = molecular target: Neu5Ac(a2-3)Gal(b1-4)GlcNAc(b1-3)Gal(b1-4)GlcNAc(b1-3)[Neu5Ac(a2-3)Gal(b1-4)GlcNAc(b1-3)Gal(b1-4)GlcNAc(b1-6)]GalNAc
# In short: as §1
# [14] = molecular target: Neu5Ac(a2-3)Gal(b1-4)GlcNAc(b1-3)Gal(b1-4)GlcNAc(b1-6)[Gal(b1-3)]GalNAc
# In short: as §1
# [15] = molecular target: Neu5Ac(a2-3)Gal(b1-4)GlcNAc(b1-3)Gal(b1-4)[Fuc(a1-3)]GlcNAc
# In short: as §1
# [16] = molecular target: Neu5Ac(a2-3)Gal(b1-4)GlcNAc(b1-3)GalNAc
# In short: as §1
# [17] = molecular target: Neu5Ac(a2-3)Gal(b1-4)GlcNAc(b1-3)[Neu5Ac(a2-3)Gal(b1-4)GlcNAc(b1-6)]GalNAc
# In short: as §1
# [18] = molecular target: Neu5Ac(a2-3)Gal(b1-4)GlcNAc(b1-6)GalNAc
# In short: as §1
# [19] = molecular target: Neu5Ac(a2-3)Gal(b1-4)GlcNAc(b1-6)[Gal(b1-3)]GalNAc
# In short: as §1
# [20] = molecular target: Neu5Ac(a2-3)Gal(b1-4)GlcNAc(b1-6)[Neu5Ac(a2-3)Gal(b1-3)]GalNAc
# In short: as §1
# [21] = molecular target: Neu5Ac(a2-3)Gal(b1-4)GlcNAc6S
# In short: as §1
# [22] = molecular target: Neu5Ac(a2-3)Gal(b1-4)[Fuc(a1-3)]GlcNAc
# In short: as §1
# [23] = molecular target: Neu5Ac(a2-3)Gal(b1-4)[Fuc(a1-3)]GlcNAc(b1-2)Man
# In short: as §1
# [24] = molecular target: Neu5Ac(a2-3)Gal(b1-4)[Fuc(a1-3)]GlcNAc(b1-3)Gal
# In short: as §1
# [25] = molecular target: Neu5Ac(a2-3)Gal(b1-4)[Fuc(a1-3)]GlcNAc(b1-3)Gal(b1-4)GlcNAc
# In short: as §1
# [26] = molecular target: Neu5Ac(a2-3)Gal(b1-4)[Fuc(a1-3)]GlcNAc(b1-3)Gal(b1-4)[Fuc(a1-3)]GlcNAc(b1-3)Gal(b1-4)[Fuc(a1-3)]GlcNAc
# In short: as §1
# [27] = molecular target: Neu5Ac(a2-3)Gal(b1-4)[Fuc(a1-3)]GlcNAc(b1-3)GalNAc
# In short: as §1
# [28] = molecular target: Neu5Ac(a2-3)Gal(b1-4)[Fuc(a1-3)]GlcNAc(b1-6)[Gal(b1-3)]GalNAc
# In short: as §1
# [29] = molecular target: Neu5Ac(a2-3)Gal(b1-4)[Fuc(a1-3)]GlcNAc(b1-6)[Neu5Ac(a2-3)Gal(b1-3)]GalNAc
# In short: as §1
# [30] = molecular target: Neu5Ac(a2-3)Gal(b1-4)[Fuc(a1-3)]GlcNAc6S
# In short: as §1
# [31] = molecular target: Neu5Ac(a2-3)Gal6S(b1-4)GlcNAc
# In short: as §1
# [32] = molecular target: Neu5Ac(a2-3)Gal6S(b1-4)[Fuc(a1-3)]GlcNAc
# In short: as §1
# Neu5Ac(a2-3)GalNAc = molecular target: Neu5Ac(a2-3)GalNAc
# In short: as §1
# [33] = molecular target: Neu5Ac(a2-3)GalNAc(b1-4)GlcNAc
# In short: as §1
# [34] = molecular target: Neu5Ac(a2-3)[GalNAc(b1-4)]Gal(b1-4)Glc
# In short: as §1
# [35] = molecular target: Neu5Ac(a2-3)[GalNAc(b1-4)]Gal(b1-4)GlcNAc
# In short: as §1
# [36] = molecular target: Neu5Ac(a2-3)[GalNAc(b1-4)]Gal(b1-4)GlcNAc(b1-3)GalNAc
# In short: as §1
# [37] = molecular target: Neu5Ac(a2-3)[Neu5Ac(a2-6)]GalNAc
# In short: as §1
# Neu5Ac(a2-6)Gal = molecular target: Neu5Ac(a2-6)Gal
# In short: as §1
# [38] = molecular target: Neu5Ac(a2-6)Gal(b1-3)GlcNAc(b1-3)[Gal(b1-4)GlcNAc(b1-6)]Gal(b1-4)Glc
# In short: as §1
# Neu5Ac(a2-6)Gal(b1-4)Glc = molecular target: Neu5Ac(a2-6)Gal(b1-4)Glc
# In short: as §1
# [39] = molecular target: Neu5Ac(a2-6)Gal(b1-4)GlcNAc
# In short: as §1
# [40] = molecular target: Neu5Ac(a2-6)Gal(b1-4)GlcNAc(b1-2)Man
# In short: as §1
# [41] = molecular target: Neu5Ac(a2-6)Gal(b1-4)GlcNAc(b1-2)Man(a1-3)Man(b1-4)GlcNAc(b1-4)GlcNAc
# In short: as §1
# [42] = molecular target: Neu5Ac(a2-6)Gal(b1-4)GlcNAc(b1-2)Man(a1-3)[Gal(b1-4)GlcNAc(b1-2)Man(a1-6)]Man(b1-4)GlcNAc(b1-4)GlcNAc
# In short: as §1
binder,measurement,setting,value
B1,glycan array binding signal (z-score),[1],-0.243
same,glycan array binding signal (z-score),[2],-0.241
same,glycan array binding signal (z-score),[3],-0.24
same,glycan array binding signal (z-score),[4],-0.215
same,glycan array binding signal (z-score),[5],-0.243
same,glycan array binding signal (z-score),[6],-0.245
same,glycan array binding signal (z-score),[7],-0.261
same,glycan array binding signal (z-score),[8],-0.231
same,glycan array binding signal (z-score),[9],-0.212
same,glycan array binding signal (z-score),[10],-0.255
same,glycan array binding signal (z-score),[11],-0.219
same,glycan array binding signal (z-score),[12],-0.24
same,glycan array binding signal (z-score),[13],-0.206
same,glycan array binding signal (z-score),[14],1.11
same,glycan array binding signal (z-score),[15],-0.258
same,glycan array binding signal (z-score),[16],-0.235
same,glycan array binding signal (z-score),[17],-0.242
same,glycan array binding signal (z-score),[18],-0.229
same,glycan array binding signal (z-score),[19],0.846
same,glycan array binding signal (z-score),[20],-0.181
same,glycan array binding signal (z-score),[21],-0.257
same,glycan array binding signal (z-score),[22],-0.26
same,glycan array binding signal (z-score),[23],-0.218
same,glycan array binding signal (z-score),[24],-0.263
same,glycan array binding signal (z-score),[25],-0.189
same,glycan array binding signal (z-score),[26],-0.253
same,glycan array binding signal (z-score),[27],0.024
same,glycan array binding signal (z-score),[28],0.218
same,glycan array binding signal (z-score),[29],-0.087
same,glycan array binding signal (z-score),[30],-0.259
same,glycan array binding signal (z-score),[31],-0.251
same,glycan array binding signal (z-score),[32],-0.259
same,glycan array binding signal (z-score),Neu5Ac(a2-3)GalNAc,-0.261
same,glycan array binding signal (z-score),[33],-0.26
same,glycan array binding signal (z-score),[34],-0.265
same,glycan array binding signal (z-score),[35],-0.257
same,glycan array binding signal (z-score),[36],-0.231
same,glycan array binding signal (z-score),[37],-0.261
same,glycan array binding signal (z-score),Neu5Ac(a2-6)Gal,-0.228
same,glycan array binding signal (z-score),[38],-0.076
same,glycan array binding signal (z-score),Neu5Ac(a2-6)Gal(b1-4)Glc,-0.223
same,glycan array binding signal (z-score),[39],-0.259
same,glycan array binding signal (z-score),[40],-0.24
same,glycan array binding signal (z-score),[41],-0.24
same,glycan array binding signal (z-score),[42],-0.228
